The IC50 comes from the fitted curve, where viability falls to half of the control; fits outside the tested doses are given as limits. AUC sums up the same curve from the lowest dose to the 256-fold higher top dose: 1 means no effect, lower means more sensitive. For some assays here: A top dose marked as inferred is not printed in the source and was worked back from the curve model.
Assays:
Test in all cases: Viability of human cancer cell lines after 72 h of drug (GDSC screen)
XL-880 = compound: COc1cc2c(Oc3ccc(NC(=O)C4(C(=O)Nc5ccc(F)cc5)CC4)cc3F)ccnc2cc1OCCCN1CCOCC1 [XL-880]; conditions: top dose 5.12 µM; top dose inferred
Protocol: (§1)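 Human cancer cell lines in 384-well plates, medium with 10% serum, drug for 72 h over a 256-fold dose range (nine 2-fold or five 4-fold steps up to the top dose). Adherent lines were fixed and stained with the nucleic acid dye Syto60, suspension lines read with resazurin; signal relative to control wells, capped at 0 and 100%. One two-parameter sigmoid per drug and line, fitted in a mixed model over all curves with the slope shared within a line.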

IPA-3 = compound: Oc1ccc2ccccc2c1SSc1c(O)ccc2ccccc12 [IPA-3]; conditions: top dose 32 µM; top dose inferred
Protocol: as §1

Temozolomide = compound: Cn1nnc2c(C(N)=O)ncn2c1=O [Temozolomide]; conditions: top dose 30 µM
Protocol: as §1

Tubastatin A = compound: CN1CCc2c(c3ccccc3n2Cc2ccc(C(=O)NO)cc2)C1 [Tubastatin A]; conditions: top dose 20 µM
Protocol: as §1

Row | Cell Line | AUC (XL-880) | IC50 (XL-880) [nM] | AUC (IPA-3) | IC50 (IPA-3) [µM] | AUC (Temozolomide) | IC50 (Temozolomide) [µM] | AUC (Tubastatin A) | IC50 (Tubastatin A) [µM]
1 | SNU-182 (liver, adherent) | 0.658 | 898 | 0.819 | 19.3 | 0.973 | > 30 | 0.977 | > 20
2 | HLE (liver, adherent) | 0.656 | 845 | 0.652 | 5.16 | 0.978 | > 30 | 0.945 | > 20
3 | Hep 3B2_1-7 (liver, adherent) | 0.544 | 421 | 0.867 | 28.9 | 0.985 | > 30 | 0.981 | > 20
4 | GCT (soft tissue, adherent) | 0.919 | > 5120 | 0.985 | > 32 | 0.883 | 28.4 | 0.984 | > 20
5 | VM-CUB-1 (bladder, adherent) | 0.771 | 1890 | 0.888 | > 32 |  |  | 0.985 | > 20
6 | HPAF-II (pancreas, adherent) | 0.641 | 887 | 0.98 | > 32 | 0.975 | > 30 | 0.969 | > 20
7 | U031 (kidney, adherent) | 0.767 | 1970 | 0.771 | 12.7 | 0.983 | > 30 | 0.952 | > 20
8 | Caov-3 (ovary, adherent) | 0.593 | 558 | 0.964 | > 32 |  |  | 0.991 | > 20
9 | NCI-H2170 (lung squamous cell carcinoma, adherent) | 0.919 | > 5120 | 0.966 | > 32 | 0.982 | > 30 | 0.98 | > 20
10 | KYSE-270 (oesophagus, adherent) | 0.65 | 778 | 0.767 | 10.2 | 0.987 | > 30 | 0.982 | > 20
11 | PC-3 (prostate, adherent) |  |  | 0.869 | > 32 | 0.981 | > 30 | 0.943 | > 20
12 | PCI-38 (head and neck, adherent) | 0.571 | 500 | 0.986 | > 32 | 0.985 | > 30 | 0.96 | > 20
13 | COR-L32 (small cell lung carcinoma, suspension) |  |  |  |  | 0.941 | > 30 |  | 
14 | MDA-MB-157 (breast, adherent) | 0.792 | 2380 | 0.975 | > 32 | 0.987 | > 30 | 0.984 | > 20
15 | NUGC-3 (stomach, adherent) | 0.831 | 3820 | 0.839 | 25.9 | 0.981 | > 30 | 0.982 | > 20
16 | J82 (bladder, adherent) | 0.749 | 1650 | 0.727 | 8.77 | 0.987 | > 30 | 0.982 | > 20
17 | SNU-423 (liver, adherent) | 0.622 | 738 | 0.901 | > 32 | 0.972 | > 30 | 0.967 | > 20
18 | SISO (cervix, adherent) | 0.665 | 901 | 0.983 | > 32 | 0.89 | > 30 | 0.957 | > 20
19 | SW1116 (large intestine, adherent) | 0.87 | > 5120 |  |  | 0.983 | > 30 | 0.98 | > 20
20 | SNU-398 (liver, adherent) | 0.643 | 810 | 0.802 | 16.5 | 0.981 | > 30 |  | 
21 | SNU-475 (liver, adherent) | 0.549 | 429 | 0.919 | > 32 |  |  |  | 
22 | COLO-792 (melanoma, adherent) | 0.893 | > 5120 | 0.982 | > 32 | 0.987 | > 30 | 0.987 | > 20
23 | KOSC-2 (head and neck, adherent) | 0.525 | 376 | 0.876 | > 32 | 0.955 | > 30 | 0.974 | > 20

Row | Cell Line | AUC (XL-880) | IC50 (XL-880) [nM] | AUC (IPA-3) | IC50 (IPA-3) [µM] | AUC (Temozolomide) | IC50 (Temozolomide) [µM] | AUC (Tubastatin A) | IC50 (Tubastatin A) [µM]
24 | BHY (head and neck, adherent) | 0.595 | 583 | 0.869 | 29.6 | 0.985 | > 30 | 0.947 | > 20
25 | OSC-19 (head and neck, adherent) | 0.638 | 785 | 0.769 | 12.6 | 0.963 | > 30 | 0.976 | > 20
26 | HO-1-N-1 (head and neck, adherent) | 0.704 | 1130 | 0.988 | > 32 | 0.968 | > 30 | 0.979 | > 20
27 | COR-L311 (small cell lung carcinoma, suspension) | 0.806 | 2840 |  |  |  |  |  | 
28 | CAL-54 (kidney, adherent) | 0.623 | 737 | 0.955 | > 32 | 0.983 | > 30 | 0.965 | > 20
29 | SNU-1040 (large intestine, adherent) | 0.719 | 1680 |  |  | 0.974 | > 30 | 0.982 | > 20
30 | A172 (glioma, adherent) | 0.665 | 905 | 0.828 | 18.8 | 0.97 | > 30 | 0.988 | > 20
31 | HeLa (cervix, adherent) | 0.693 | 1080 | 0.881 | 31 |  |  |  | 
32 | BPH-1 (prostate, adherent) | 0.608 | 654 | 0.887 | > 32 | 0.957 | > 30 | 0.954 | > 20
33 | ML-1 (thyroid, adherent) | 0.743 | 1820 | 0.696 | 7.86 | 0.981 | > 30 | 0.981 | > 20
34 | NCI-H522 (lung adenocarcinoma, adherent) | 0.756 | 2050 | 0.835 | 26.9 | 0.979 | > 30 | 0.936 | > 20
35 | RERF-GC-1B (stomach, adherent) | 0.565 | 491 | 0.909 | > 32 | 0.973 | > 30 | 0.96 | > 20
36 | MS751 (cervix, adherent) | 0.823 | 2710 | 0.99 | > 32 | 0.988 | > 30 | 0.979 | > 20
37 | HPAC (pancreas, adherent) | 0.528 | 393 | 0.922 | > 32 |  |  | 0.965 | > 20
38 | SW156 (kidney, adherent) | 0.703 | 1290 | 0.986 | > 32 | 0.977 | > 30 | 0.981 | > 20
39 | NCI-H2228 (lung adenocarcinoma, adherent) | 0.631 | 888 | 0.961 | > 32 |  |  | 0.974 | > 20
40 | BICR31 (head and neck, adherent) | 0.733 | 1480 | 0.815 | 17.8 |  |  | 0.988 | > 20
41 | OAW-28 (ovary, adherent) | 0.551 | 456 | 0.982 | > 32 | 0.976 | > 30 | 0.968 | > 20
42 | TCCSUP (bladder, adherent) | 0.704 | 1320 | 0.894 | > 32 | 0.955 | > 30 | 0.982 | > 20
43 | NCI-H1793 (lung adenocarcinoma, adherent) | 0.825 | 4920 | 0.979 | > 32 | 0.979 | > 30 | 0.981 | > 20
44 | HCC1806 (breast, adherent) | 0.771 | 1810 | 0.887 | 30.5 | 0.977 | > 30 | 0.843 | 12.5
45 | BCPAP (thyroid, adherent) | 0.524 | 370 | 0.875 | 26.4 | 0.969 | > 30 | 0.959 | > 20
46 | H2818 (mesothelioma, adherent) | 0.965 | > 5120 | 0.972 | > 32 | 0.982 | > 30 | 0.973 | > 20

Row | Cell Line | AUC (XL-880) | IC50 (XL-880) [nM] | AUC (IPA-3) | IC50 (IPA-3) [µM] | AUC (Temozolomide) | IC50 (Temozolomide) [µM] | AUC (Tubastatin A) | IC50 (Tubastatin A) [µM]
47 | MKN1 (stomach, adherent) | 0.69 | 1130 | 0.856 | 28 | 0.985 | > 30 | 0.979 | > 20
48 | NCI-H1573 (lung adenocarcinoma, adherent) | 0.834 | 3210 | 0.985 | > 32 | 0.99 | > 30 | 0.988 | > 20
49 | NCI-H2085 (lung adenocarcinoma, adherent) | 0.663 | 944 | 0.712 | 8.41 | 0.985 | > 30 | 0.973 | > 20
50 | SNU-175 (large intestine, suspension) | 0.513 | 347 |  |  |  |  | 0.983 | > 20
51 | ME-180 (cervix, adherent) | 0.571 | 506 | 0.986 | > 32 | 0.98 | > 30 | 0.985 | > 20
52 | KP-4 (pancreas, adherent) | 0.713 | 1240 | 0.988 | > 32 | 0.985 | > 30 | 0.835 | 12.4
53 | 769-P (kidney, adherent) | 0.614 | 681 | 0.763 | 12.6 | 0.981 | > 30 | 0.911 | > 20
54 | PL18 (pancreas, adherent) | 0.717 | 1310 | 0.97 | > 32 | 0.98 | > 30 | 0.987 | > 20
55 | BEN (non-small cell lung carcinoma, adherent) | 0.767 | 2180 | 0.976 | > 32 | 0.985 | > 30 | 0.955 | > 20
56 | SN12C (kidney, adherent) | 0.906 | > 5120 | 0.985 | > 32 | 0.975 | > 30 | 0.985 | > 20
57 | PANC-10-05 (pancreas, adherent) | 0.715 | 1570 | 0.836 | 30.4 | 0.974 | > 30 | 0.935 | > 20
58 | CAMA-1 (breast, adherent) | 0.921 | > 5120 | 0.918 | > 32 | 0.937 | > 30 | 0.957 | > 20
59 | RD (rhabdomyosarcoma, adherent) | 0.62 | 706 | 0.907 | > 32 | 0.981 | > 30 | 0.919 | > 20
60 | YMB-1-E (breast, adherent) | 0.886 | > 5120 |  |  |  |  | 0.969 | > 20
61 | COR-L105 (lung adenocarcinoma, adherent) | 0.674 | 1100 | 0.702 | 8.51 | 0.967 | > 30 | 0.853 | > 20
62 | BFTC-909 (kidney, adherent) | 0.83 | 3110 | 0.984 | > 32 | 0.951 | > 30 | 0.988 | > 20
63 | NCI-H2030 (lung adenocarcinoma, adherent) | 0.628 | 762 | 0.952 | > 32 | 0.977 | > 30 | 0.95 | > 20
64 | KYSE-180 (oesophagus, adherent) | 0.51 | 339 | 0.988 | > 32 | 0.931 | > 30 | 0.96 | > 20
65 | ChaGo-K-1 (non-small cell lung carcinoma, adherent) | 0.786 | 2590 | 0.842 | 27.8 | 0.982 | > 30 | 0.98 | > 20
66 | CHP-134 (neuroblastoma, suspension) | 0.544 | 436 |  |  |  |  | 0.923 | > 20
67 | COR-L303 (small cell lung carcinoma, suspension) | 0.625 | 698 |  |  |  |  | 0.816 | 10.6
